No constants are given. Whether binding was seen depends on the method and setting. In cells and extracts the contact can be indirect. Some results given as binding are weak or reduced against the parent protein; the word gives no strength. Tags and fused reporters may be left off the sequences shown.
Molecular target: T1, FLAG-UPF1 (wild-type) (human) (UniProt Q92900)
T1 sequence: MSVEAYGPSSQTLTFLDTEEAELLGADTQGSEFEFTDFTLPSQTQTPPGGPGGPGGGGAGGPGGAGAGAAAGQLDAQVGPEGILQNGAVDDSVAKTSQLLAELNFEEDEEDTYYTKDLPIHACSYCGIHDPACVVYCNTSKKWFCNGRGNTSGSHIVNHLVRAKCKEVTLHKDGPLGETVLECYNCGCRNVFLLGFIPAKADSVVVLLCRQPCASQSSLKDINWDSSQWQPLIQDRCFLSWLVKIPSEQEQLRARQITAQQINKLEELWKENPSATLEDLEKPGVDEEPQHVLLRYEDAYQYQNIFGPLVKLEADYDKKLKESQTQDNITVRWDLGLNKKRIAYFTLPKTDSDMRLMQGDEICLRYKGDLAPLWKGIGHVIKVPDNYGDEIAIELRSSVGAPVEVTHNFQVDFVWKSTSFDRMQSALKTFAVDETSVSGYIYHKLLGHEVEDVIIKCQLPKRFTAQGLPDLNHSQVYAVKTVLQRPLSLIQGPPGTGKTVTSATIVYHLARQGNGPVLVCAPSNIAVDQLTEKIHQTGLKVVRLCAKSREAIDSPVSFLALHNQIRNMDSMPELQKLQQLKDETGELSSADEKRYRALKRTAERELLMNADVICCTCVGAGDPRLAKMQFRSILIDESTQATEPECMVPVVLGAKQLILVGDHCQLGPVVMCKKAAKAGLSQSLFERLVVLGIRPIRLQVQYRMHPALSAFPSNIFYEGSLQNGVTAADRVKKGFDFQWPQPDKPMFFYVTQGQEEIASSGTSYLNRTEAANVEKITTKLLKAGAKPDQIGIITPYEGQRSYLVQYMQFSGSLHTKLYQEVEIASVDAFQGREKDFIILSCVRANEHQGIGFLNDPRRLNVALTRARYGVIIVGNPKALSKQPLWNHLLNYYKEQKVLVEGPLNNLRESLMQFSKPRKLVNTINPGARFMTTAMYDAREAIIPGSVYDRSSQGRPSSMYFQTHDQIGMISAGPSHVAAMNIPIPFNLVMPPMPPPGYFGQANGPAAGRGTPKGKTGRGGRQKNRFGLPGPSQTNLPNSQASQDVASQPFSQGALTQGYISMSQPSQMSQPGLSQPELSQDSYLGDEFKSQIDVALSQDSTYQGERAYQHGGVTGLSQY
Assay: co-IP; anti-FLAG IP of transiently transfected FLAG-UPF1 (wild-type or mutants) from HEK293T lysate; endogenous partners by western blot; in the absence or presence of RNase A (Figures 2B, S2B); cells also depleted of DHX34 by shRNA, rescued with T7-DHX34, or cotransfected with T7-DHX34

Protein sequences, listed by entry. Tags and fused reporters are not part of them.
UniProt Q96Q15: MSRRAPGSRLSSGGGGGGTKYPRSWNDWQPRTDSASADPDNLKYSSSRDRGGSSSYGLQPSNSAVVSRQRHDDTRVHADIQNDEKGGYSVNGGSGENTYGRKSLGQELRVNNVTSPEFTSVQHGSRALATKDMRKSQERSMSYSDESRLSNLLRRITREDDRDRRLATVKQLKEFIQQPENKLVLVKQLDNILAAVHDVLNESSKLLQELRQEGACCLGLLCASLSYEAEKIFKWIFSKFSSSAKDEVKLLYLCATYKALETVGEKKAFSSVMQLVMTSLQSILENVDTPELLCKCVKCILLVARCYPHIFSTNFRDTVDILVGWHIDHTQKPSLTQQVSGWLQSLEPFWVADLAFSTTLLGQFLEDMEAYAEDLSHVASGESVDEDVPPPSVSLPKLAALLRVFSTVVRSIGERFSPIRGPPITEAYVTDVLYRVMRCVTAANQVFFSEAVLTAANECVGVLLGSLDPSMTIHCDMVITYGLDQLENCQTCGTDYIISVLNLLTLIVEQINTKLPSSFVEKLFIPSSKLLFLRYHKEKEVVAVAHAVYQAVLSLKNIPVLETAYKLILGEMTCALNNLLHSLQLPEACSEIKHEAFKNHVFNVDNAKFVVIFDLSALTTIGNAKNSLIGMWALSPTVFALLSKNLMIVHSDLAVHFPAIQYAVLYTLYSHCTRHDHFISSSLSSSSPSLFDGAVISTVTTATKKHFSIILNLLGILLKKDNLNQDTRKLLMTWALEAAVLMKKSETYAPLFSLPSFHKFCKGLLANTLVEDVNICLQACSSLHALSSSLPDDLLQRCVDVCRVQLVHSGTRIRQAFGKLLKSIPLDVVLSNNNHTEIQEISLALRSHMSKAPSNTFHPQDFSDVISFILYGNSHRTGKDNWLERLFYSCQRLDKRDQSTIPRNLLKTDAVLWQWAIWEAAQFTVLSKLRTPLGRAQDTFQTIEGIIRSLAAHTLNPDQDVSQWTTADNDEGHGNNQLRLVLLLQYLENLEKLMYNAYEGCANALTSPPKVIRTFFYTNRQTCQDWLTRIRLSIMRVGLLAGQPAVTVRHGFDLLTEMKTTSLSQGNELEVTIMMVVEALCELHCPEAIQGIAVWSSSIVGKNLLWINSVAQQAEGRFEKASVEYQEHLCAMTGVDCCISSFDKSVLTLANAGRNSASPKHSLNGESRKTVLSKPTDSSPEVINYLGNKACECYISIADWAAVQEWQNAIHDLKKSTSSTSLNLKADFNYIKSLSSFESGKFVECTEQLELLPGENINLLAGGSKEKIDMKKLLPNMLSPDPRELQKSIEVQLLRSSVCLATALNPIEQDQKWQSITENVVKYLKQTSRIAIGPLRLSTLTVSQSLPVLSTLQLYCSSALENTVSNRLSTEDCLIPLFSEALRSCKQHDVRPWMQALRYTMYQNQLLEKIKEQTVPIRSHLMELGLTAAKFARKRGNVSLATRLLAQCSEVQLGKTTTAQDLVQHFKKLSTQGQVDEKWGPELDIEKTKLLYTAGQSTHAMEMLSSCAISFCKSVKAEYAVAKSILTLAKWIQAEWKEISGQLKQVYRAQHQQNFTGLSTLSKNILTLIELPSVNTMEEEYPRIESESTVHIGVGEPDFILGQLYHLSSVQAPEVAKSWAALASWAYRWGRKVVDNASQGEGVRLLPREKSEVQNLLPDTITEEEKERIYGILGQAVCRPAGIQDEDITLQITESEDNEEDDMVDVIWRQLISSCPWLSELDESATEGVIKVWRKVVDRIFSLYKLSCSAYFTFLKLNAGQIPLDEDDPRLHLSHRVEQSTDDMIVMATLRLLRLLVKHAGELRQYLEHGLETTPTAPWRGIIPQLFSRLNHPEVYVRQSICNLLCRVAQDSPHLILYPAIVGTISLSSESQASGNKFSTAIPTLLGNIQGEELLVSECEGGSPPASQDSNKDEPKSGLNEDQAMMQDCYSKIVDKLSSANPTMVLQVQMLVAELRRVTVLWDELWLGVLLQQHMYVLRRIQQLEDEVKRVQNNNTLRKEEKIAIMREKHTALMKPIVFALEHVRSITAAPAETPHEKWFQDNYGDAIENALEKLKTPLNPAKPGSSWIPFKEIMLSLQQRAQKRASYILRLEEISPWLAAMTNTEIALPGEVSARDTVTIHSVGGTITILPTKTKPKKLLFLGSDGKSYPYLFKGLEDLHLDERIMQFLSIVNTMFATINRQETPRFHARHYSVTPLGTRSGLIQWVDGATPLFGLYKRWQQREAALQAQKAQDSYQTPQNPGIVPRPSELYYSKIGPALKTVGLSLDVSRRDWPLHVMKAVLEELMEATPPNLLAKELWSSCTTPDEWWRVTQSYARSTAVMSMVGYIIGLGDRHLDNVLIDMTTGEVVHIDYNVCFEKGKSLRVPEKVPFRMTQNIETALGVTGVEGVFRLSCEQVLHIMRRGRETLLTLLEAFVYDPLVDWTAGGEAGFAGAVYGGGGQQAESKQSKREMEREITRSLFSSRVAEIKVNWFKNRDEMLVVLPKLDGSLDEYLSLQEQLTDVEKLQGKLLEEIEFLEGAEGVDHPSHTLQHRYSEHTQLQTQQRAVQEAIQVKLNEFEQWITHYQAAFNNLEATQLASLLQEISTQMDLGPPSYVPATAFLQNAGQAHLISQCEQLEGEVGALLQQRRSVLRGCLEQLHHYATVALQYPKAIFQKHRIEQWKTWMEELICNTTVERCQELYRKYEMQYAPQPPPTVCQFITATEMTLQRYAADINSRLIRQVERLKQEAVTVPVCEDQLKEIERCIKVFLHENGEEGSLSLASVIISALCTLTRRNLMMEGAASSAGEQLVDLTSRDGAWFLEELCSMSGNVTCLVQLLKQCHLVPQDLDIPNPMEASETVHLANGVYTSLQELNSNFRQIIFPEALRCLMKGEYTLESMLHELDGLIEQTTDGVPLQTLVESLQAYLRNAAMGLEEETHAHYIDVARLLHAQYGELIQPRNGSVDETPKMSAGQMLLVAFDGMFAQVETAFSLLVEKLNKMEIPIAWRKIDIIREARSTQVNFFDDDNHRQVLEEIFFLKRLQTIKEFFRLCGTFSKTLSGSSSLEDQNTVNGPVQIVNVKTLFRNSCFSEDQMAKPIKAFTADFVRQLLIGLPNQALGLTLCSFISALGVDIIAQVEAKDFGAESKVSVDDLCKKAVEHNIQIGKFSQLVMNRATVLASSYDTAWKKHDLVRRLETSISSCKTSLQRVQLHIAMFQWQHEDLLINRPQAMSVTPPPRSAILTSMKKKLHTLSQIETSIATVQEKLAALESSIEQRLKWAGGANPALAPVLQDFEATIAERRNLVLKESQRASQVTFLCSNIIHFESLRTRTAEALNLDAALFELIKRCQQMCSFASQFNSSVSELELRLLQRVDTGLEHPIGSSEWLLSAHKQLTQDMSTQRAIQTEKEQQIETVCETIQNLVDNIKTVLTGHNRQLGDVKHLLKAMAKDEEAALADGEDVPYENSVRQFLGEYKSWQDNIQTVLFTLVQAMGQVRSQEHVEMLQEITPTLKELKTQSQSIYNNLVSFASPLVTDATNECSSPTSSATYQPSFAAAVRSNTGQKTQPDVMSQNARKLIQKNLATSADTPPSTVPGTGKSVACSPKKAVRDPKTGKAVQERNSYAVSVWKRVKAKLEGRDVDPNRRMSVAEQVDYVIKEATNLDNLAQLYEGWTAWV

- binding: binds
Substance: SMG1 (from UniProt Q96Q15 1-3661)

Source: PMC4534575, “The RNA Helicase DHX34 Activates NMD by Promoting a Transition from the Surveillance to the Decay-Inducing Complex” (Cell Reports, 2014)
